# Measured values from the supplement of paper PMC10126150.
# Values marked as one replicate rest on one cluster of the flow cell; about a third of the high ones do not repeat.
# System: ATP
# Assay: switch fluorescence ratio, 500 uM ATP over buffer (Cy3 cluster intensity, sum of 5 cycles each) (fold (ratio)); higher = stronger signal-on switching upon ATP binding; sequences stand for … in TCGTCGGCAGCGTCAGATGTGTATAAGAGACAGTTTTTTTTTTTTTTTTTTTTTTTTT…TC
# Details: aptamer strand: ATP DNA aptamer (quencher-CACCTGGGGGAGTATTGCGGAGGAAGG + anchor), 100 nM annealed; ATP concentration: 500 uM; one replicate
# How it was run: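 Per cluster, summed Cy3 intensity from the target cycles was divided by that from the buffer cycles to give the fluorescence ratio, then averaged per switch-domain sequence. Clusters outside 100-1000 RFU were excluded. The Cy3-labelled switching-strand clusters, on a modified Illumina MiSeq flow-cell, were annealed to 100 nM quencher-labelled ATP aptamer and imaged in selection buffer, then after 15 min with 500 uM ATP at 22 °C, for five cycles with NaOH stripping and re-annealing between them.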
# 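Note: ATP exposure 15 min at 22 °C before imaging.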
row,Sequence,switch fluorescence ratio
1,AGGAAGGCTA,1.06
2,AGGAATACGC,1.64
3,AGGAATATTG,1.02
4,AGGAATCATC,1.01
5,AGGAATGTAG,0.974
6,AGGACCCCGG,1
7,AGGACGGA,0.986
8,AGGAGACA,1.01
9,AGGAGCAGGC,1.04
10,AGGAGCCAGC,0.991
11,AGGAGTGCT,1.01
12,AGGAGTTCAG,1.01
13,AGGATAAGGG,1.01
14,AGGATCGGGA,1.06
15,AGGATCTCTA,1.01
16,AGGATGGCGC,0.942
17,AGGCAAGTTA,1.01
18,AGGCAATGAT,1.1
19,AGGCACTAGC,0.991
20,AGGCACTGTA,1.07
21,AGGCAGATGT,1.01
22,AGGCAGCTGG,1.03
23,AGGCAGGGTG,1.05
24,AGGCATAAGC,0.964
25,AGGCATAGAA,0.99

row,Sequence,switch fluorescence ratio
1,AGGCATTGTG,0.964
2,AGGCCCAGTG,1.85
3,AGGCCCATAA,0.998
4,AGGCCCCAAT,1.08
5,AGGCCTCTGA,0.986
6,AGGCCTGACT,1.07
7,AGGCCTTCTC,1.23
8,AGGCCTTCTG,1.07
9,AGGCGAGCCT,0.997
10,AGGCGATTTT,1.05
11,AGGCGCAGAG,0.985
12,AGGCGGGGGA,0.961
13,AGGCGGTCTC,1.03
14,AGGCGTATAT,1.03
15,AGGCTAAGAG,0.996
16,AGGCTAATGT,0.98
17,AGGCTCGCGA,1.01
18,AGGCTGTCTG,1.03
19,AGGCTTCCAG,1.01
20,AGGGAAGCCC,1.05
21,AGGGAATGGC,1.06
22,AGGGACACCC,0.975
23,AGGGACACGG,1.06
24,AGGGACTTGC,0.975
25,AGGGCAAACC,1.05

row,Sequence,switch fluorescence ratio
1,AGGGCAAGGC,1.12
2,AGGGCAAGGG,1.03
3,AGGGCACC,1.03
4,AGGGCACTCA,1.07
5,AGGGCGCTGT,0.985
6,AGGGCTGCAC,0.991
7,AGGGCTGGTT,1.03
8,AGGGCTTGTT,1.03
9,AGGGGACGTG,0.968
10,AGGGGAGTAC,0.947
11,AGGGGATCCG,0.977
12,AGGGGCACCA,1.03
13,AGGGGCCCAA,0.992
14,AGGGGCCTCG,1
15,AGGGGCGCCC,1.05
16,AGGGGCTTT,0.999
17,AGGGGGCACG,0.991
18,AGGGGTAGCA,0.962
19,AGGGTAATCT,1.14
20,AGGGTAGTGG,0.983
21,AGGGTATTGA,1.01
22,AGGGTCCACA,0.964
23,AGGGTCCTTG,1.07
24,AGGGTCTAGG,0.965
25,AGGGTTGAG,0.989

row,Sequence,switch fluorescence ratio
1,AGGGTTGCTT,0.984
2,AGGTAAGGTA,0.981
3,AGGTAATGGA,0.997
4,AGGTACAGCG,1.09
5,AGGTACCATA,1.08
6,AGGTACGGG,1.02
7,AGGTAGACTG,1.02
8,AGGTAGTGAG,0.967
9,AGGTATCATT,0.966
10,AGGTATCGGA,0.978
11,AGGTATGTAC,1.01
12,AGGTCAATTT,0.969
13,AGGTCACGAT,0.991
14,AGGTCCAAAT,0.953
15,AGGTCCAACA,1.07
16,AGGTCCAGCA,1.06
17,AGGTCTAGCG,0.999
18,AGGTCTCCGT,0.987
19,AGGTGACATT,1.14
20,AGGTGAGATG,1.01
21,AGGTGAGGAA,1.04
22,AGGTGAGGTT,1.03
23,AGGTGCAAGC,0.979
24,AGGTGCTTAG,1.04
25,AGGTGGAGCA,0.944
